# Publication PMC6919601, “Identification of Plasmodium dipeptidyl aminopeptidase allosteric inhibitors by high throughput screening” (PLoS ONE, 2019)
# Several values for one entry are separate records, joined by “and”; a condition that tells them apart may be missing. Identical values can stand only once. The whole screen tested about 110,000 compounds, of which about 230 (0.21%) showed an effect of 50% or more. This is one part of the list.
# Target: DPAP1 (Plasmodium falciparum, UniProt Q8IIJ9)
# Experiment: primary screen, percent inhibition; read by cleavage of a fluorogenic dipeptide substrate; higher = more effect of the substance
# Parameters: species or system P. falciparum D10 trophozoite lysates; single well
# 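Also: 30 min substrate incubation versus DMSO and 10 µM JCP410 controls.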
# Sequence of DPAP1 (Q8IIJ9 whole entry, looked up): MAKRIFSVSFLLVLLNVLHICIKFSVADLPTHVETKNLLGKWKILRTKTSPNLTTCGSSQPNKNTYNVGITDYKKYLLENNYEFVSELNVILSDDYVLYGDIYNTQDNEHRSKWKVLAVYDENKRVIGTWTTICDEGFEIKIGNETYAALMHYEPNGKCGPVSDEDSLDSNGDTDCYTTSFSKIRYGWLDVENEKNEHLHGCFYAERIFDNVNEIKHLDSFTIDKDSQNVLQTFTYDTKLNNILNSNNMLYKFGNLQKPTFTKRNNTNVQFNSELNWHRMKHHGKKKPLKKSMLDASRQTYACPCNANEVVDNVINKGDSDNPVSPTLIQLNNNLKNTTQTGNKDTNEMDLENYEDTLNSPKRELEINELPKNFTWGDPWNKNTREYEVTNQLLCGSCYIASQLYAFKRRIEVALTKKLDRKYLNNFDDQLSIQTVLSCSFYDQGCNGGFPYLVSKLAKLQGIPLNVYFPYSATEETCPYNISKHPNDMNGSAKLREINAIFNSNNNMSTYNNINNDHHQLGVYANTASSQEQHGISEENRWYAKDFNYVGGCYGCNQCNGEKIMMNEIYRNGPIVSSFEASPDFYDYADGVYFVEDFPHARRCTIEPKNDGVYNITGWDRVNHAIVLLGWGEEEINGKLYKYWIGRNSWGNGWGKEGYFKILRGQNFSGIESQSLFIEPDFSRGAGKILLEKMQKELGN
row,Compound,% Inhibition @ 10 uM
1,CCOc1ccc2c(c1)[N+](C)=C(/C=C/c1ccc(C(=O)OC)cc1)C2(C)C,0.627%
2,CC1(C)Cc2c(C#N)c(SCC(=O)O)nc(N3CCOCC3)c2CO1,10.1%
3,COc1ccc(C(=O)c2cc(C)ccc2OC)cc1,5.4%
4,COc1ccc(CNC(=O)Cn2c(-c3nonc3N)nc3ccccc32)cc1,-4.11%
5,O=C(O)c1cccc(NC(=O)C(c2ccccc2)c2ccccc2)c1,-1.26%
6,Nc1ccccc1C(=O)Nc1ccc2c(c1)OCO2,-0.95%
7,CC(C)c1[nH]nc2c1C(c1ccccc1C(F)(F)F)C(C#N)=C(N)O2 (centres unmarked),3.62%
8,COC(=O)c1cc2sc(Cl)cc2n1CC(=O)N1CCCC1,-3.5%
9,Nc1c(S(=O)Cc2ccc(Cl)cc2)sc2nc3c(cc12)CCCC3 (centres unmarked),-0.178%
10,CCC(Oc1ccccc1)c1nc2ccccc2n1CC (centres unmarked),3.81%
11,COc1cc(OC)cc(-c2cc(N)n(S(=O)(=O)c3ccc(OC)c(OC)c3)n2)c1,-2.19%
12,O=C(NCc1ccco1)c1cccc2c1C(=O)N(C1CCCCC1)C2,1.23%
13,COc1cc(Cl)cc(/C=C2\SC(=O)N(CC(=O)Nc3ccc(C)cc3)C2=O)c1O,14.6%
14,CSc1ncccc1C(=O)NCc1cccs1,0.238%
15,C/C(S)=N\c1ccc2c(c1)ncn2-c1ccccc1C,-6.33%
16,COc1cccc(NC(=O)c2cc(C(=O)O)n(C)n2)c1,-6.38%
17,CC1(C)CC2=Nc3ccccc3NC(c3ccc(C#N)cc3)C2=C(O)C1 (centres unmarked),-4.43%
18,Cc1ccc(Cn2cc3c(n2)-c2c(oc(C(=O)O)c2C)CC3)cc1,-0.0309%
19,COc1ccc(OC)c(C2C(C#N)=C(C)N=C3CC(C)(C)CC(O)=C32)c1 (centres unmarked),-1.2%
20,CC(NC(=O)CCc1nnc2n(Cc3ccccc3Cl)c(=O)c3ccccc3n12)c1ccccc1 (centres unmarked),-0.692%
21,CC(C)CC(=O)Nc1c(C(=O)c2ccc(Cl)cc2)oc2ccccc12,0.414%
22,FC(F)(F)c1cccc(-n2nnc(-c3ccccc3)n2)c1,0.00706%

row,Compound,% Inhibition @ 10 uM
1,CCC1C(c2ccccc2)=NN(CC)c2nc3c(c(=O)n(C)c(=O)n3C)n21 (centres unmarked),-0.703%
2,Cc1ccccc1S(=O)(=O)Nc1ccc2c(c1)OCO2,-4.12%
3,Cc1ccc(S(=O)(=O)c2cc3cc(Cl)ccc3oc2=O)cc1,-4.97%
4,CCOc1ccccc1CNC(=O)Cn1nc(C)c2c(C)n(-c3ccc(C)cc3)nc2c1=O,1.78%
5,O=C(O)C1C2C=CC(O2)C1C(=O)Nc1cccc(F)c1 (centres unmarked),-1.79%
6,CCOC(=O)c1sc(NC(=O)c2ccc(OC)c(OC)c2)c(C#N)c1C,8.6%
7,Cc1ccc(-n2nc(C)c3c(C)c(CCC(=O)O)c(C)nc32)cc1,-6.87%
8,COc1ccc(OC)c(-n2nnc(-c3nsc(NC(=O)c4ccccc4Cl)n3)c2C)c1,-3.85%
9,Cc1ccc(-n2nnc(-c3nc(-c4ccc(Cl)cc4)no3)c2N)cc1C,-2.15%
10,Cc1cc(C)c2c(n1)SCC(=O)N2CC(=O)NCC1CCCO1 (centres unmarked),-4.15%
11,O=C(NC(=S)N1CCCCCC1)c1cccs1,-0.267%
12,Cc1cc2nc(CSc3nnc(NC(=O)c4ccco4)s3)cc(=O)n2o1,-3.2%
13,O=[N+]([O-])c1ccc(N2CCCCCC2)nc1,3.44%
14,CCOC(=O)C(=O)NC(Cc1ccccc1)c1ccccc1 (centres unmarked),1.13%
15,CCOc1ccc(CCN2C(=O)c3cccnc3C2=O)cc1OCC,-7.8%
16,COc1cccc(NC(=O)c2ccc([N+](=O)[O-])cc2Cl)c1,-3.26%
17,C=CCOc1ccc(CNC(C)(C)C)cc1OCC,-1.63%
18,Cc1ccc(C)c(OCc2nc(-c3ccncc3)no2)c1,-3.62%
19,CCOc1ccc(NC(=O)COc2ccc3ccccc3c2Br)cc1,9.13%
20,Cc1ccnc(NC(=O)c2cc(-c3ccc(C)c(C)c3)[nH]n2)c1,-2.18%
21,Cc1ccccc1CSCC(=O)NC1CCCCC1,-2.14%
22,Cc1cc(O)cc(=O)n1CCCn1ccnc1,-2.91%

row,Compound,% Inhibition @ 10 uM
1,CC12COC3(C(=O)NCCc4ccccc4)CC1CCC32C (centres unmarked),4.67%
2,C=CCn1c(SCCCC)nc(O)cc1=O,-6.08%
3,CCCSc1nnc2c(n1)OC(C)(C)Nc1ccccc1-2,1.72%
4,CC(C)(C)N1C(=O)NC(=O)/C(=C\c2c[nH]c3ccccc23)C1=O,17.9%
5,NC(=O)c1c(NC(=O)c2sc3ccccc3c2Cl)sc2c1CCCC2,5.31%
6,COc1ccc2c(C)c(C(=O)NCC(C)O)oc2c1OC (centres unmarked),-3.58%
7,CCOC(=O)C1=C(c2ccccc2)NC(=O)NC1c1ccccc1Cl (centres unmarked),-0.357%
8,O=C(CCc1nnc2ccc(N3CCCC3)nn12)NCCc1c[nH]c2ccccc12,-4.32%
9,Cc1nn(Cc2ccc(Cl)c(Cl)c2)c(C)c1NC(=O)C1CC=CCC1C(=O)O (centres unmarked),-0.366% and -5.15%
10,O=C1CC(N2CCc3ccccc3C2)C(=O)N1c1cccc(C(F)(F)F)c1 (centres unmarked),-8.88%
11,N#CC1=C(N)Oc2[nH]nc(-c3cccs3)c2C1c1ccc(C(F)(F)F)cc1 (centres unmarked),2.67%
12,CC(C)(C)c1cc(C(C)(C)C)cc(S(=O)(=O)CCc2ccncc2)c1,-1.69%
13,CN1CCCN(Cc2c(F)cccc2Cl)CC1,-5.11%
14,CCCCN(C)C(=O)c1c(C)nn(-c2ccc(C)cc2)c1-n1cccc1,-3.54%
15,Cc1c(Cc2ccccc2)c(O)nc2nc(O)sc12,1.76%
16,CCCCSCCCNC(=O)C1=C(C)C(=O)OC12CCC(C)CC2 (centres unmarked),-1.89%
17,CCCC1=C(C(=O)OCC)C(c2cccc(C(F)(F)F)c2)C(C#N)=C(N)O1 (centres unmarked),1.08%
18,CCOC(=O)C1=C(C)N=c2s/c(=C\c3ccc(C(=O)OC)cc3)c(=O)n2C1c1ccc(Cl)cc1 (centres unmarked),-0.339%
19,CCOc1ccc(CCNC(=O)C2CC(=O)N(C3CCCC3)C2)cc1OCC (centres unmarked),6.86%
20,N#Cc1ccccc1NC(=O)CSc1nc2ccccc2s1,-3.19%
21,CC(C)(C)NC(=O)CC(c1ccccc1)c1cc(Cl)ccc1O (centres unmarked),-4.49%
